What was measured:
Assay in all cases: SPR
rabbit VEGF-A165 [1] = target: T1, rabbit VEGF-A165 (rabbit)
T1 chain: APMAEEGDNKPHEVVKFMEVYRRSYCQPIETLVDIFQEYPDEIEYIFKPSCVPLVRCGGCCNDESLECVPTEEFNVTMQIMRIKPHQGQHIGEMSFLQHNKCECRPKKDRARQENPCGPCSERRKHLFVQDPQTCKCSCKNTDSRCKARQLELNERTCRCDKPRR

murine PlGF-2 = target: T2, murine PlGF-2 (mouse, UniProt P49764 19-158)
T2 chain: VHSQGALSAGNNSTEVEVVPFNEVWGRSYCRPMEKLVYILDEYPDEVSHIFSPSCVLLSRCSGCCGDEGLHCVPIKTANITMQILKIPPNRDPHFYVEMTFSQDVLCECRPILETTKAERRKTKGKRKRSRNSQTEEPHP

rat VEGF-A164 [2] = target: T3, rat VEGF-A164 (rat, UniProt P16612-2 27-190)
T3 chain: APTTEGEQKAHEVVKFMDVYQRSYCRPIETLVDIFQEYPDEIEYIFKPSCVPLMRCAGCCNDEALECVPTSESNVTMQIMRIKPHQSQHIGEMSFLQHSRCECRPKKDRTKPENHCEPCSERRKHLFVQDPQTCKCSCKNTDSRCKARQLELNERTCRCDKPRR

human PlGF-1 [3] = target: T4, human PlGF-1 (human, UniProt P49763-2 19-149)
T4 chain: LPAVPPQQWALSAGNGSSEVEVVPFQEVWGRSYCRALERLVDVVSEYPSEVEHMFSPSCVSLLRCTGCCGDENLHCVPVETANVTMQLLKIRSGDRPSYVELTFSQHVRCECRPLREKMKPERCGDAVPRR

murine VEGF-A164 [4] = target: T5, murine VEGF-A164 (mouse)
T5 chain: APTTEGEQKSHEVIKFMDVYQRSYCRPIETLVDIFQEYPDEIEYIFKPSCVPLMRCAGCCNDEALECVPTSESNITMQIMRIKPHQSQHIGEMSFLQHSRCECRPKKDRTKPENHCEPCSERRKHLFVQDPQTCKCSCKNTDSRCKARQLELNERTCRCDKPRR

murine VEGF-A120 [5] = target: T6, murine VEGF-A120 (mouse)
T6 chain: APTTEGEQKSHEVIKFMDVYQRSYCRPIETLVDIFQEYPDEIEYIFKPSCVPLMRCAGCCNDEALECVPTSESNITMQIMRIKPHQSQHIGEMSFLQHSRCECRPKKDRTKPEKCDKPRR

rabbit VEGF-A165 [6] = target: T1, rabbit VEGF-A165
rat VEGF-A164 [7] = target: T3, rat VEGF-A164
human PlGF-1 [8] = target: T4, human PlGF-1
murine VEGF-A164 [9] = target: T5, murine VEGF-A164
murine VEGF-A120 [10] = target: T6, murine VEGF-A120

koff (rabbit VEGF-A165 [1]): 2.63e-05 s⁻¹
koff (murine PlGF-2): 5.45e-05 s⁻¹
koff (rat VEGF-A164 [2]): 1.73e-05 s⁻¹
koff (human PlGF-1 [3]): 0.00264 s⁻¹
koff (murine VEGF-A164 [4]): 1.64e-05 s⁻¹
koff (murine VEGF-A120 [5]): 1.23e-05 s⁻¹
Kd (rabbit VEGF-A165 [6]): 0.776 pM
Kd (rat VEGF-A164 [7]): 0.471 pM
Kd (human PlGF-1 [8]): 392 pM
Kd (murine VEGF-A164 [9]): 0.586 pM
Kd (murine VEGF-A120 [10]): 0.572 pM
B1: VEGF Trap (aflibercept) (Fc fusion)
chain: SDTGRPFVEMYSEIPEIIHMTEGRELVIPCRVTSPNITVTLKKFPLDTLIPDGKRIIWDSRKGFIISNATYKEIGLLTCEATVNGHLYKTNYLTHRQTNTIIDVVLSPSHGIELSVGEKLVLNCTARTELNVGIDFNWEYPSSKHQHKKLVNRDLKTQSGSEMKKFLSTLTIDGVTRSDQGLYTCAASSGLMTKKNSTFVRVHEK[skipping human IgG1 Fc]

— paper PMC3338918 (2012)
